Source: PubChem BioAssay AID504832 (National Center for Advancing Translational Sciences (NCATS), 2011)
Screen size: about 310,000 compounds; about 18,000 (5.8%) were called active. Inconclusive results, whose numbers are uncertain, are shown with a selection of clear calls. Calls come from the whole dose curve; as a rule, active = well fitted inhibition curve with a large enough effect; inconclusive = small, poorly fitted or top-dose-only effect, or another doubt; inactive = no such curve, though single readings can be large or run the other way. No potency is given beside an inconclusive call; the fits are too rough.

Experiment: Primary qHTS for delayed death inhibitors of the malarial parasite plastid, 48 hour incubation
Details: P. falciparum luciferase growth in erythrocytes; series mostly up to 28.7 µM
Outline: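 Parasite viability was followed by luminescence of a genomically integrated firefly luciferase. Cultures held 0.1% parasitemia at 2% hematocrit (final), incubated under 5% CO2 at 37 C.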
Potency is the fitted concentration of half-maximal effect; tags give direction and shape of the fitted curve.

| Compound | Potency |
| --- | --- |
| O=C(NCC1CCCO1)c1ccc(F)c2ccccc12 (stereo unspecified) | inactive |
| N#CCC(=O)Nc1ccc(C(F)(F)F)cc1N1CCOCC1 | inactive |
| COc1cc(/C=N/n2cnnc2)ccc1OCCOc1ccccc1 | inactive |
| Cc1c(C(=O)N2CCN(C3CCS(=O)(=O)C3)CC2)oc2ccc(Cl)cc12 (stereo unspecified) | inconclusive [inhibitor, single point] |
| COC(=O)c1ccc(CN2CCCC(C(=O)Nc3cccc(-n4cccn4)c3)C2)cc1 (stereo unspecified) | inconclusive [inhibitor, single point] |
| C=CCNc1nc(N2CCCCC2)c(C#N)c2c1CN(Cc1ccccc1)CC2 | inconclusive [inhibitor, single point] |
| Cc1ccc(NC(=O)N2CCC(c3nc4c(nnn4Cc4cccc(Cl)c4)c(=O)[nH]3)CC2)cc1 | active: 13.1 µM |
| COc1cccc(N(C(=O)CNC(=O)c2ccco2)C(C(=O)NC2CCCCC2)c2ccncc2)c1 (stereo unspecified) | inactive |
| CC/C(=N\NC(=O)c1ccccc1Cl)c1ccc(Br)s1 | inconclusive [inhibitor, partial curve, poor fit] |
| Cc1ccc2oc(C(=O)N3CCC(C(N)=O)(N4CCCCC4)CC3)c(C)c2c1 | inconclusive [inhibitor, partial curve, poor fit] |
| CCOC(=O)c1[nH]cnc1N=Nc1c(O)ccc2ccccc12 | active: 2.94 µM |
| COc1ccc(-c2nc(CS(=O)CC(=O)NC3CCCC3)c(C)o2)cc1OC (stereo unspecified) | inactive |
| COC(=O)c1ccc(C(=O)N(CCN(C)C)c2nc3c(Cl)cccc3s2)cc1 | inactive |
| CCc1ccc(OCC(=O)NNC(=O)c2cnccn2)c(Br)c1 | active: 10.4 µM |
| O=C(N=C1SC2CS(=O)(=O)CC2N1c1cc(Cl)ccc1Cl)C1CCCO1 (stereo unspecified) | inactive |
| Cc1ccccc1-n1c(O)c(/C=N/N2CCCCC2c2cccnc2)c(=O)[nH]c1=O (stereo unspecified) | inactive |
| CC(C)OCCCNc1nc2c(-c3ccccc3)nnn2c2ccccc12 | inconclusive [inhibitor, partial curve, poor fit] |
| O=S(=O)(c1ccc(S(=O)(=O)N(Cc2cccs2)CC2CCCO2)cc1)N1CCCCC1 (stereo unspecified) | inconclusive [inhibitor, single point] |
| Cc1sc2nc(CN3CCCC3)nc(N3CCN(S(=O)(=O)c4cccs4)CC3)c2c1C | inconclusive [inhibitor, partial curve, poor fit] |
| Cc1ccc(N2C(=O)N(CC(=O)Nc3ccccc3C(F)(F)F)C(=O)C2C)cc1 (stereo unspecified) | inactive |
| O=C(Nc1ccc(F)cc1)Nc1nnc(Cc2ccccc2)s1 | inconclusive [inhibitor, single point] |
| CCCc1nn2c(=O)cc(COc3cccc(NC(=O)c4ccco4)c3)nc2s1 | inconclusive [inhibitor, partial curve] |

| Compound | Potency |
| --- | --- |
| CC(=O)c1cccc(NC(=O)C2(c3ccccc3)CC2(Cl)Cl)c1 (stereo unspecified) | inconclusive [inhibitor, single point] |
| CCn1c(=O)c2cc(C(=O)N(C)CC(OC)OC)sc2c2ccccc21 | inconclusive [inhibitor, single point] |
| CC1CC(C)CN(S(=O)(=O)c2ccc(C(=O)Nc3nnc(-c4cccs4)o3)cc2)C1 (stereo unspecified) | inconclusive [inhibitor, partial curve, poor fit] |
| Cn1c(SCC(=O)N/N=C/c2cc([N+](=O)[O-])ccc2O)nnc1-c1ccccc1 | inconclusive [inhibitor, single point] |
| CCCCCn1c(Sc2nc3ccccc3s2)nc2c1c(=O)[nH]c(=O)n2C | inconclusive [inhibitor, partial curve] |
| CCOc1ccc(C(=O)Nc2ccccc2N2CCCC2)cc1 | inconclusive [inhibitor, full curve, poor fit] |
| Cn1cnc([N+](=O)[O-])c1SCC(O)CCl (stereo unspecified) | inconclusive [inhibitor, full curve, poor fit] |
| CCCCCCN=C(CC)c1c(O)n(CCCC)c(=O)[nH]c1=O | inconclusive [inhibitor, partial curve] |
| COC(=O)c1ccc(CNC(=O)C(C)N=C2NS(=O)(=O)c3ccccc32)cc1 (stereo unspecified) | inconclusive [inhibitor, single point] |
| CCOC(=O)c1ccoc1CSCC(=O)N1CCN(S(=O)(=O)c2ccc(C)cc2)CC1 | inconclusive [inhibitor, partial curve, poor fit] |
| CCc1nn(CCCC(=O)Nc2ccc(C)cc2C)c(=O)c2cc3occc3n12 | inconclusive [inhibitor, partial curve] |
| CCCCCc1cc(=O)oc2c(C(CCN3CCCCC3)c3cc(OC)c(OC)c(OC)c3)c(OC)cc(OC)c12 (stereo unspecified) | active: 5.22 µM |
| CCC1(C)NC(=O)N(CC(=O)N2N=C(c3ccccc3)CC2c2ccc(OC)cc2)C1=O (stereo unspecified) | inactive |
| COCCN=c1scc(C)n1/N=C/C1CC2C=CC1C2 (stereo unspecified) | inconclusive [inhibitor, single point] |
| COc1cccc(/C=N/NC(=O)C(C)Sc2ccccc2)c1 (stereo unspecified) | inactive |
| Cc1n[nH]c(=O)n1-c1ccc(C(C)C)cc1 | inconclusive [inhibitor, single point] |
| CCCCn1nc2cc(C(=O)NCC34CC5CC(CC(C5)C3)C4)ccc2c1OC | inconclusive [inhibitor, single point] |
| Cc1ccn2c(C(=O)CSc3ccc(Cl)cc3)c(C)nc2c1 | inconclusive [inhibitor, single point] |
| COc1ccccc1N1CCN(CCN(C(=O)c2ccc(F)cc2)c2ccccn2)CC1 | inconclusive [inhibitor, partial curve] |
| CN1CCN(CCC(=O)N2c3ccccc3Sc3ccc(Cl)cc32)CC1 | inconclusive [inhibitor, partial curve, poor fit] |
| CSCc1cc(N2CCOCC2)nc(SCc2ccc(Cl)cc2Cl)n1 | active: 13.1 µM |
| O=C(COc1cccnc1[N+](=O)[O-])Nc1cc(S(=O)(=O)N2CCCCC2)ccc1Cl | inactive |

| Compound | Potency |
| --- | --- |
| CO[C@H]1OC2O[C@@]3(C)CC[C@H]4[C@H](C)CC[C@@H]([C@H]1C)[C@@]24OO3 (stereo partly specified) | active: 0.0048 µM |
| O=C(CCN1C(=O)/C(=C/c2cccs2)SC1=S)N1CCCCC1 | inconclusive [inhibitor, single point] |
| COc1ccc([C@]23Cc4cc(C#N)ccc4[C@H](O2)c2c(cc(C)n(Cc4ccccc4)c2=O)O3)cc1 | active: 1.9 µM |
| NC(=O)c1nn(CC(=O)Nc2cccc(S(=O)(=O)N3CCCC3)c2)c(=O)c2ccccc12 | inconclusive [inhibitor, single point] |
| C/C(CC(c1ccccc1)c1c(O)c2ccccc2oc1=O)=N\Nc1ccc([N+](=O)[O-])cc1[N+](=O)[O-] (stereo unspecified) | inconclusive [inhibitor, single point] |
| COc1ccc(-n2nc(C(=O)NCC(=O)NCCC3=CCCCC3)c3ccccc3c2=O)cc1OC | inconclusive [inhibitor, single point] |
| CCc1cccc(NC(=O)c2cccc3c2C(=O)N(CC2CCCO2)C3)c1 (stereo unspecified) | inconclusive [inhibitor, partial curve, poor fit] |
| CC(C)(C)c1ccc(OCC(=O)NNC(=O)c2cccnc2)cc1 | inactive |
| CCC(CC)c1nnc(NC(=O)CCc2ccc(OC)cc2)s1 | inactive |
| Cc1ccc(C)c(OCCC(=O)N2CCN(S(=O)(=O)c3cc(C)ccc3C)CC2)c1 | inconclusive [inhibitor, single point] |
| CCCc1nc2ccc(NC(C)=O)cc2c(=O)n1Cc1cccc(Cl)c1 | inconclusive [inhibitor, single point] |
| COc1ccc(-c2nn(-c3ccccc3)cc2C(=O)Nc2ccc(C(=O)O)cc2)cc1OC | inconclusive [inhibitor, partial curve] |
| Nc1nc(Nc2cccc(Cl)c2)nc(NCc2ccco2)c1[N+](=O)[O-] | inconclusive [inhibitor, single point] |
| CCOc1ccc(NC(=O)CN(C)C(=O)c2cc(-c3ccncc3)nc3ccccc23)cc1OCC | inconclusive [inhibitor, partial curve, poor fit] |
| COC(=O)C1C(O)C(C)C(O)C(C)/C=C\C=C(/C)C(=O)Nc2c(C)c(OC(C)=O)c3c(c2O)C(=O)C(C)=C2OCOC(=C23)/C(C)=C/C(C)(O)C(O)C(C)C1O (stereo unspecified) | active: 11.7 µM |
| CCNC(=S)N(CCc1c(C)[nH]c2ccc(C)cc12)Cc1ccco1 | inconclusive [inhibitor, single point] |
| CC(CCc1ccccc1)NC(=O)CCCn1ncn2c(cc3occc32)c1=O (stereo unspecified) | inconclusive [inhibitor, single point] |
| Fc1cc(F)cc(Nc2nc(Cl)nc(NC3CCCC3)n2)c1 | inactive |
| CCOC(=O)C1=CC(OC(CC)CC)C(NC(C)=O)C(N)C1 (stereo unspecified) | inconclusive [inhibitor, single point] |
| COc1ccc(C2NC(=O)c3sc4nc(C)c(C(C)=O)c(-c5ccc(Cl)cc5)c4c3N2)cc1 (stereo unspecified) | inconclusive [inhibitor, partial curve] |
| CSc1nc(N2CCCC2)c2c(c1C#N)CC(C)(C)OC2 | inactive |
| CCOc1ccc(C(=O)CN2CCN(S(=O)(=O)c3ccc(F)cc3)CC2)cc1 | inconclusive [inhibitor, single point] |
